Results from publication PMC6451091.
Some of the results follow. For part of these data: At the low end of the ranking the order means little. For part of these data: Measured with an extract: partners may take part in the binding.

Assays:
Conditions in all cases: 20 mM HEPES pH 7.9, 100 mM NaCl, 1 mM DTT, 0.2 mg/mL BSA, 0.02% Triton X-100, 2% milk, 0.4 mg/mL salmon testes DNA; 1 h; temperature not stated; high values mean tight binding; double strand, one strand shown; sequences stand for … in GCCTAGCAC…GTGCTAGGTCTTGATTCGCTTGACGCTGCTG
PU.1 (IVT) = PU.1 (IVT) (UniProt P17947); experiment: protein-binding microarray (PBM)
[1] = molecular target: PU.1 (endogenous, THP-1 nuclear extract) (UniProt P17947); experiment: nuclear extract protein-binding microarray (nextPBM)
[2] = molecular target: T1, FLI1 (endogenous, THP-1 nuclear extract) (UniProt Q01543); experiment: as above
T1 sequence: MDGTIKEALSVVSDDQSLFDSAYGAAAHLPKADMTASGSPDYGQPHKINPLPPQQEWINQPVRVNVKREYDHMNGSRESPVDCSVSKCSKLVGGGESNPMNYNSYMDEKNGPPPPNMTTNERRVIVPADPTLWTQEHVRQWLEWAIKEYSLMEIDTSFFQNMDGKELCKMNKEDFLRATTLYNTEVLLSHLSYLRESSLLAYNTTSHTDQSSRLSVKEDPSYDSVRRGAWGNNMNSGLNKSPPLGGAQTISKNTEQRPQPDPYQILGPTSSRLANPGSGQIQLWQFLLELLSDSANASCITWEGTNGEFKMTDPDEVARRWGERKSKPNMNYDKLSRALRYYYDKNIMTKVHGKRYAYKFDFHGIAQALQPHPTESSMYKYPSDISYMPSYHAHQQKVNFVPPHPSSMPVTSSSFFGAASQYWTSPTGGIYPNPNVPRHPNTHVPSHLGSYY

[3] = system: PU.1 (endogenous, THP-1 nuclear extract) + IRF8 (endogenous, THP-1 nuclear extract); experiment: as above

| Sequence | binding signal (PU.1 (IVT)) [z-score] | binding signal [1] [z-score] | binding signal [2] [z-score] | binding signal [3] [z-score] |
| --- | --- | --- | --- | --- |
| CCACGGCCTACACTGCCCCC | 0.555 | -0.365 | -0.68 | 2.74 |
| AAGGACTTGTTCCAAGAATT | -0.167 | -0.644 | -0.681 | -1.52 |
| ATTGCAGTGAGCTGTGACCA | -0.421 | -0.47 | -0.555 | -1.28 |
| ACCACCTTATACCTTAATTT | 0.00219 | 0.0115 | 0.375 | 0.741 |
| GGGATGTATCCTTGTGGTTG | 0.0905 | 0.178 | 0.913 | 0.366 |
| TTCCCGTGACTTAGACTCAA | 3.38 | 2.71 | 2.71 | -0.78 |
| TCATGAAAGGCCAAATGGGT | -0.076 | -0.205 | -0.25 | 0.312 |
| GAGGATGTGATAAACCTTTG | -0.155 | -0.00648 | 1.03 | -1.16 |
| TGATTTGGAGACTAAGGCGC | -0.0204 | -0.483 | -0.54 | -0.783 |
| GGGACGGCGTTCCCGGCGCG | -0.397 | -0.0533 | 0.263 | 0.873 |
| TTGGAAACTGCGTGAAACTG | -0.0571 | -0.636 | 0.0239 | 2.61 |
| TGTCACAGCTTGGAAACTAG | -0.278 | -0.309 | 0.0766 | 0.169 |
| TTTTCTATCTCTCCCTTCTA | -0.293 | -0.358 | -0.318 | 0.228 |
| AACTTCCCTTTTCTCTTAAC | 8.26 | 6.83 | 3.91 | 1.67 |
| CTATTGTCACAGTTGCTAGG | -0.162 | -0.306 | -0.413 | -1.49 |
| GAAGAGCATGGGCAGGATGG | -0.755 | -0.398 | 1.28 | 2 |
| GAGGATTGGTTAATAAAGAT | 0.0827 | -0.449 | -0.119 | -0.0703 |
| GGTGTGGCTGCGTGAAACCT | -0.532 | -0.391 | -0.48 | 1.29 |
| GATATTTATGACGCTTGACC | -0.44 | -0.291 | -0.681 | -1.48 |
| CTGCCAGCTGCGTGAAAGCA | -0.251 | -0.458 | -0.132 | 0.191 |
| TAGTAGACTGCGTGAAAGCA | -0.205 | -0.45 | -0.647 | 0.112 |
| AACTCTTGCTTTTAAGGAGC | -0.338 | -0.281 | -0.3 | -0.746 |
| CAATGAAAGCTAACTGATGC | -0.24 | -0.00694 | -0.528 | -0.473 |
| GGACACACCCAAATTACAAA | -0.319 | 0.0226 | -0.555 | 0.516 |
